Assay results from PubChem BioAssay (NCATS).
The inconclusive results got no clear call from the source; some entries with a clear call stand among them for comparison. For part of these data: Potencies of inconclusive entries are left out as doubtful fits. Activity calls are given as the source filed them. Unless noted, the call rests on the fitted dose curve; in most records, active means well fitted curve in the direction sought with a large enough effect; inconclusive means small, poorly fitted or top-dose-only effect, or another doubt; inactive means no such curve, though single readings can be large; an effect the other way counts as inactive or inconclusive.

Experiments:
[1] = Cell Viability - Jurkat (AID 426;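 active means dose-dependent loss of cell ATP signal giving a full or clear fitted curve, ranked by lower potency value; inconclusive means weak partial curve or response only at the top dose; inactive means no loss of viability signal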; further: potency means the concentration at half of the fitted maximal effect); conditions: qHTS
Method in brief: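 Jurkat (Clone E6-1) cells, 5000/well in complete medium, exposed to compounds for 40 hr at 37C; intracellular ATP measured by CellTiter-Glo luminescence after 20 min at room temperature. AC50 from Hill fits.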

[2] = Cell Viability - HepG2 (AID 433; calls by dose curve;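 further: potency means the concentration at half of the fitted maximal effect; potency for ATP loss meaning cytotoxicity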); conditions: qHTS
Method in brief: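 Cytotoxicity read as ATP loss (CellTiter-Glo luminescence) after 40 hr compound exposure of HepG2, 1500 cells/well, 37 °C. AC50 by Hill equation; 0% set by DMSO, 100% inhibition by 100 uM tamoxifen.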

[3] = Cell Viability - SK-N-SH (AID 435; calls by dose curve; further: potency means the concentration at half of the fitted maximal effect); conditions: SK-N-SH neuroblastoma cell viability qHTS
Method in brief: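 qHTS cytotoxicity: CellTiter-Glo ATP luminescence after 40 h compound exposure of human neuroblastoma SK-N-SH cells at 37 °C. AC50 derived by Hill-equation fitting, with DMSO as basal and 100 uM tamoxifen as full inhibition.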

[4] = biological target: Mitogen-activated protein kinase 10 (Mus musculus) (UniProt Q61831); assay: JNK3 AlphaScreen Assay (AID 530; active means well fitted curve in either direction with a large enough effect, not every such curve was filed as active; inconclusive means small, poorly fitted or top-dose-only effect, or another doubt;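 further: kinase came from lysate of stimulated human HepG2 cells; signal reports phosphorylation of biotinylated GST-cJun 1-79 at Ser73 with 10 µM ATP; potency means the concentration at half of the fitted maximal effect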); conditions: JNK3 lysate, c-Jun phosphorylation; activity change, negative = inhibition: at 57.1 µM (top of the series)
Method in brief: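 Pre-activated (IL-1β/TNFα) JNK3 in HepG2 lysates phosphorylates biotin-GST-cJun(1-79), 10 uM ATP; anti-phospho-cJun(Ser73) AlphaScreen read at room temperature, pH 7.6 Tris buffer. Compounds pre-incubated 15 min as titrations.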

[5] = Cell Viability - HUV-EC-C (AID 542); conditions: HUV-EC-C endothelial cell viability, qHTS; series mostly up to 92.2 µM; further: potency means the concentration at half of the fitted maximal effect; nearly all actives have a fitted effect of over 35% in size
Method in brief: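 HUV-EC-C human vascular endothelial cells, 1000/well, exposed to compound for 40 hr at 37 °C in complete medium. Intracellular ATP was read by CellTiter-Glo luminescence. AC50 came from Hill-equation fits of concentration-response data.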

[6] = Cell Viability - Renal Proximal Tubule (AID 545); conditions: renal proximal tubule cells viability, primary cells of rat origin; activity change, negative = cytotoxicity: at 91.7 µM (top of the series); further: nearly all actives have a fitted effect of over 40% in size
Method in brief: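 Viability taken as intracellular ATP (CellTiter-Glo luminescence) after 40 hr, 37 °C compound treatment of primary proximal tubule cells from rat kidney, 1000 cells/well; Hill-equation fits of qHTS concentration-response data gave AC50.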

[7] = Cell Viability - Mesenchymal (AID 546); conditions: mesenchymal cells viability, qHTS; activity change, negative = cytotoxicity: at 91.7 µM (top of the series);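 further: cells exposed to compound for 40 hours before reading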
Method in brief: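 Human kidney mesenchymal cells from normal renal glomeruli, 1000 cells/well, rested 5 hr at 37 °C, then treated 40 hr at 37 °C in complete medium. Cellular ATP read by CellTiter-Glo luminescence; AC50 from Hill-equation fits.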

[8] = Cellular Toxicity (caspase-3) Jurkat (AID 655); conditions: Jurkat caspase-3 activation, luminescence; caspase-3 activation: at 92.2 µM (top of the series), DMSO = 0%, tamoxifen = 100%;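 further: cells exposed to compound for 16 h at 37 °C before reading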
Method in brief: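 Luminescent Caspase-Glo 3/7 read-out (20 min, room temperature) after 16 h compound treatment at 37 C of 5000 Jurkat cells per well. AC50 derived by Hill-equation fitting, scaled between DMSO basal and 100 uM tamoxifen stimulation.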

[9] = Cellular Toxicity (caspase-3) SHSY5Y (AID 657); conditions: SH-SY5Y caspase-3 activation; series mostly up to 91.7 µM
Method in brief: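 Luminescent Caspase-Glo 3/7 read-out, 1 hr room temperature, follows 16 hours of compound treatment of SH-SY5Y cells at 37 °C. Normalization: DMSO basal, 10 uM staurosporine as 100%; AC50 values from Hill-equation concentration-response fits.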

[10] = Cell Viability - LYMP2-001 (AID 921); conditions: LYMP2-001 lymphoblastoid cell viability; series mostly up to 92.2 µM; further: potency means the concentration at half of the fitted maximal effect; nearly all actives have a fitted effect of over 70% in size
Method in brief: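 Cellular ATP loss read by luciferase luminescence after 24 h compound exposure at 37 C in complete medium. LYMP2-001 lymphoblastoid cells, 2500/well; qHTS concentration-response data fitted with Hill equation for AC50.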

[11] = MultiTox-Fluor Cytotoxicity Assay - LYMP1-001 - Dead Cells (AID 946); conditions: LYMP1-001 lymphoblastoid cells, dead-cell protease fluorescence; cytotoxicity (dead cells): at 92.2 µM (top of the series); further: potency means the concentration at half of the fitted maximal effect
Method in brief: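 In this qHTS, 15 uM tetraoctylammonium bromide defined 100% and DMSO defined basal activity. Lymphoblastoid cells (LYMP1-001, 2500 per well) received compound for 16 hr at 37 C before a fluorogenic dead-cell substrate readout at 485/520 nm.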

[12] = MultiTox-Fluor Cytotoxicity Assay - LYMP1-001 - Live Cells (AID 947); conditions: LYMP1-001 lymphoblastoid cells, live-cell protease fluorescence viability; series mostly up to 92.2 µM; further: potency means the concentration at half of the fitted maximal effect
[13] = MultiTox-Fluor Cytotoxicity Assay - LYMP1-002 - Live Cells (AID 955); conditions: LYMP1-002 lymphoblastoid live-cell protease fluorescence viability; series mostly up to 46.1 µM; further: potency means the concentration at half of the fitted maximal effect
Method in brief: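 Human lymphoblastoid LYMP1-002 cells, 2500/well, treated 16 h at 37 C in complete medium. Live-cell protease activity via GF-AFC fluorescence (Ex/Em 405/510) after 60 min reagent incubation; AC50 from Hill fits.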

[14] = MultiTox-Fluor Cytotoxicity Assay - LYMP1-003 - Dead Cells (AID 961); conditions: LYMP1-003 lymphoblastoid cells, dead-cell protease fluorescence; series mostly up to 92.2 µM; further: potency means the concentration at half of the fitted maximal effect; nearly all actives have a fitted effect of over 70% in size
Method in brief: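 Acute toxicity is scored as increased dead-cell protease activity in human lymphoblastoid LYMP1-003 cells after 16 h compound exposure in complete culture medium. Activity is normalized to DMSO basal and 15 uM tetraoctylammonium bromide as full response.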

[15] = Cell Viability - LYMP1-003 - Assay at 40 hr (AID 964); conditions: LYMP1-003 lymphoblastoid viability; series mostly up to 92.2 µM; further: potency means the concentration at half of the fitted maximal effect; nearly all actives have a fitted effect of over 60% in size
Method in brief: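 LYMP1-003 human lymphoblastoid cells, 2500/well, preincubated 5 h at 37 C, then treated with compound for 40 h at 37 C. Intracellular ATP read by CellTiter-Glo luminescence after 30 min at room temperature; AC50 from Hill-equation fits.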

[16] = Cell Viability - LYMP2-009 (AID 968); conditions: LYMP2-009 lymphoblastoid cell viability; series mostly up to 92.2 µM; further: potency means the concentration at half of the fitted maximal effect; nearly all actives have a fitted effect of over 55% in size
[17] = Cell Viability - LYMP2-011 (AID 969); conditions: LYMP2-011 lymphoblastoid cells viability; series mostly up to 92.2 µM; further: potency means the concentration at half of the fitted maximal effect; nearly all actives have a fitted effect of over 60% in size
Method in brief: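 2500 cells/well in complete medium, compound-treated 24 h at 37 C. Viability read as intracellular ATP by CellTiter-Glo luminescence after 30 min at room temperature. AC50 from Hill fits of qHTS concentration-response data.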

[18] = Cell Viability - LYMP2-013 (AID 970); conditions: LYMP2-013 lymphoblastoid cells viability; activity change, negative = cytotoxic: at 92.2 µM (top of the series); further: potency means the concentration at half of the fitted maximal effect; nearly all actives have a fitted effect of over 55% in size
Method in brief: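 Human lymphoblastoid LYMP2-013 cells, 2500/well, treated 24 h at 37 C in complete medium; viability as intracellular ATP by CellTiter-Glo luminescence after 30 min. AC50 from Hill fits of qHTS concentration-response.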

[19] = Cell Viability - LYMP2-015 (AID 971); conditions: LYMP2-015 lymphoblastoid cell viability; series mostly up to 92.2 µM; further: potency means the concentration at half of the fitted maximal effect; nearly all actives have a fitted effect of over 55% in size
Method in brief: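 LYMP2-015 human lymphoblastoid cells (2500/well) in complete medium, compound-treated 24 h at 37 C; viability read as cellular ATP by CellTiter-Glo luminescence after 30 min at room temperature. AC50 from Hill-equation fits of qHTS concentration-response data.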

[20] = Cell Viability - LYMP2-017 (AID 972); conditions: LYMP2-017 lymphoblastoid cell viability; series mostly up to 92.2 µM; further: potency means the concentration at half of the fitted maximal effect; nearly all actives have a fitted effect of over 55% in size
Method in brief: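 LYMP2-017 human lymphoblastoid cells (2500/well) settled 5 hr at 37 C, then exposed to compound 24 hr at 37 C in complete medium. Viability taken as intracellular ATP by CellTiter-Glo luminescence after 30 min at RT; AC50 from Hill fits.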

[21] = Cell Viability - LYMP2-019 (AID 973); conditions: LYMP2-019 lymphoblastoid cell line viability; series mostly up to 92.2 µM
Method in brief: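 Human lymphoblastoid LYMP2-019 cells (2500/well) preincubated 5 h at 37 C, then treated 24 h at 37 C in complete medium. Viability by CellTiter-Glo ATP luminescence after 30 min at room temperature; AC50 from Hill fits.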

[22] = Cell Viability - LYMP2-021 (AID 974); conditions: LYMP2-021 lymphoblastoid cells viability; series mostly up to 92.2 µM
Method in brief: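 Human lymphoblastoid LYMP2-021 cells, 2500/well in complete medium, treated 24 hours at 37 C. Intracellular ATP by CellTiter-Glo luminescence (30 min, RT); AC50 from Hill fits of concentration-response.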

[23] = Cell Viability - LYMP2-023 (AID 975); conditions: LYMP2-023 lymphoblastoid cell viability; series mostly up to 92.2 µM
Method in brief: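 LYMP2-023 human lymphoblastoid cells, 2500/well, preincubated 5 hr at 37 C, then compound-treated 24 hr at 37 C in complete medium. CellTiter-Glo luminescence (ATP) after 30 min at room temperature; AC50 from Hill-equation fits; tetraoctylammonium bromide positive control.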

[24] = Cell Viability - LYMP2-025 (AID 976); conditions: LYMP2-025 lymphoblastoid cell viability; activity change, negative = cytotoxicity: at 92.2 µM (top of the series); further: potency means the concentration at half of the fitted maximal effect
Method in brief: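 Human lymphoblastoid LYMP2-025 cells, 2500/well, exposed 24 h at 37 C in complete medium in 1536-well qHTS. Viability as cellular ATP by CellTiter-Glo luminescence; AC50 from Hill fits of concentration-response data.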
Tags describe the fitted curve by direction and shape.

## O=C=Nc1ccc(Cl)c(Cl)c1
[1]
  Potency: inconclusive [partial curve]
[2]
  Potency: inconclusive [single point]
[3]
  Potency: inconclusive [partial curve]
[4]
  Potency: inconclusive [activator, full curve]
[5]
  Potency: inconclusive [falling, partial curve]
[6]
  activity change, negative = cytotoxicity: inconclusive: -74%
[7]
  activity change, negative = cytotoxicity: inconclusive: -34.5%
[8]
  caspase-3 activation: inconclusive: 34.7%
[9]
  Potency: inactive
[10]
  Potency: inconclusive [cytotoxic, partial curve, poor fit]
[11]
  Potency: inconclusive [cytotoxic, single point]
[12]
  Potency: inconclusive [cytotoxic, single point]
[13]
  Potency: inconclusive [cytotoxic, single point]
[14]
  Potency: inconclusive [cytotoxic, partial curve]
[15]
  Potency: inconclusive [cytotoxic, single point]
[16]
  Potency: inconclusive [cytotoxic, partial curve, poor fit]
[17]
  Potency: inconclusive [cytotoxic, single point]
[18]
  Potency: inconclusive [cytotoxic, single point]
[19]
  Potency: inconclusive [cytotoxic, single point]
[20]
  Potency: inconclusive [cytotoxic, partial curve]
[21]
  Potency: inconclusive [cytotoxic, partial curve]
[22]
  Potency: inconclusive [cytotoxic, single point]
[23]
  Potency: inconclusive [cytotoxic, single point]
[24]
  Potency: inconclusive [cytotoxic, partial curve, poor fit]
